Some of the results follow.
Columns and labels:
Test in all cases: glycan array binding signal (z-score within array); higher = stronger binding
Details in all cases: glycan notation: IUPAC condensed, linker removed; mutation: E227A
[1] = biological target: Man(a1-2)Man(a1-3)[Man(a1-2)Man(a1-6)]Man
In short: (§1)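 Glycan array binding is given as a within-array Z-score, which can be read as non-binding when negative. The arrays, 3228 of them, came from the Consortium for Functional Glycomics database and were retained only where the protein sequence was available. Z-scores were averaged across arrays of the same protein sequence at different concentrations or buffers and across linkers.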

[2] = biological target: Man(a1-2)Man(a1-3)[Man(a1-2)Man(a1-6)]Man(a1-6)[Man(a1-2)Man(a1-2)Man(a1-3)]Man
In short: as §1

[3] = biological target: Man(a1-2)Man(a1-3)[Man(a1-2)Man(a1-6)]Man(a1-6)[Man(a1-2)Man(a1-2)Man(a1-3)]Man(b1-4)GlcNAc(b1-4)GlcNAc
In short: as §1

[4] = biological target: Man(a1-2)Man(a1-3)[Man(a1-6)]Man(a1-6)[Man(a1-2)Man(a1-3)]Man(b1-4)GlcNAc(b1-4)GlcNAc
In short: as §1

[5] = biological target: Man(a1-2)Man(a1-6)[Man(a1-3)]Man(a1-6)[Man(a1-2)Man(a1-2)Man(a1-3)]Man
In short: as §1

[6] = biological target: Man(a1-2)Man(a1-6)[Man(a1-3)]Man(a1-6)[Man(a1-2)Man(a1-2)Man(a1-3)]Man(b1-4)GlcNAc(b1-4)GlcNAc
In short: as §1

[7] = biological target: Man(a1-3)[Man(a1-6)]Man
In short: as §1

[8] = biological target: Man(a1-3)[Man(a1-6)]Man(a1-6)[Man(a1-2)Man(a1-3)]Man(b1-4)GlcNAc(b1-4)GlcNAc
In short: as §1

[9] = biological target: Man(a1-3)[Man(a1-6)]Man(a1-6)[Man(a1-3)]Man
In short: as §1

[10] = biological target: Man(a1-3)[Man(a1-6)]Man(a1-6)[Man(a1-3)]Man(b1-4)GlcNAc(b1-4)GlcNAc
In short: as §1

[11] = biological target: Man(a1-3)[Man(a1-6)]Man(b1-4)GlcNAc(b1-4)GlcNAc
In short: as §1

[12] = biological target: Man(a1-3)[Man(a1-6)]Man(b1-4)GlcNAc(b1-4)[Fuc(a1-6)]GlcNAc
In short: as §1

[13] = biological target: Man(a1-6)Man
In short: as §1

[14] = biological target: Man(b1-4)GlcNAc
In short: as §1

[15] = biological target: MurNAc(b1-4)GlcNAc
In short: as §1

[16] = biological target: Neu5Ac(a2-3)Gal
In short: as §1

[17] = biological target: Neu5Ac(a2-3)Gal(b1-3)GalNAc
In short: as §1

[18] = biological target: Neu5Ac(a2-3)Gal(b1-3)GalNAc(b1-3)Gal(a1-4)Gal(b1-4)Glc
In short: as §1

[19] = biological target: Neu5Ac(a2-3)Gal(b1-3)GalNAc(b1-4)Gal(b1-4)Glc
In short: as §1

[20] = biological target: Neu5Ac(a2-3)Gal(b1-3)GalNAc(b1-4)[Neu5Ac(a2-3)]Gal(b1-4)Glc
In short: as §1

[21] = biological target: Neu5Ac(a2-3)Gal(b1-3)GalNAc(b1-4)[Neu5Ac(a2-8)Neu5Ac(a2-3)]Gal(b1-4)Glc
In short: as §1

[22] = biological target: Neu5Ac(a2-3)Gal(b1-3)GalNAc6S
In short: as §1

[23] = biological target: Neu5Ac(a2-3)Gal(b1-3)GlcNAc
In short: as §1

[24] = biological target: Neu5Ac(a2-3)Gal(b1-3)GlcNAc(b1-2)Man
In short: as §1

[25] = biological target: Neu5Ac(a2-3)Gal(b1-3)GlcNAc(b1-2)Man(a1-3)[GlcNAc(b1-4)][Neu5Ac(a2-3)Gal(b1-3)GlcNAc(b1-2)Man(a1-6)]Man(b1-4)GlcNAc(b1-4)GlcNAc
In short: as §1

[26] = biological target: Neu5Ac(a2-3)Gal(b1-3)GlcNAc(b1-2)Man(a1-3)[Neu5Ac(a2-3)Gal(b1-3)GlcNAc(b1-2)Man(a1-6)]Man(b1-4)GlcNAc(b1-4)GlcNAc
In short: as §1

[27] = biological target: Neu5Ac(a2-3)Gal(b1-3)GlcNAc(b1-2)[Neu5Ac(a2-3)Gal(b1-3)GlcNAc(b1-4)]Man(a1-6)[Neu5Ac(a2-3)Gal(b1-3)GlcNAc(b1-2)Man(a1-3)]Man(b1-4)GlcNAc(b1-4)GlcNAc
In short: as §1

[28] = biological target: Neu5Ac(a2-3)Gal(b1-3)GlcNAc(b1-3)Gal(b1-3)GlcNAc
In short: as §1

[29] = biological target: Neu5Ac(a2-3)Gal(b1-3)GlcNAc(b1-3)Gal(b1-4)GlcNAc
In short: as §1

[30] = biological target: Neu5Ac(a2-3)Gal(b1-3)GlcNAc(b1-3)GalNAc
In short: as §1

B1: Epa1-NP-mutant-E227A (Candida glabrata), Q6VBJ0 (protein)
chain: MILNPALFLNKCVCIYTTLILLLLTNGGYATSSNDISLASKDPTTFPLGCSPDITTPKKGLSMELYSYDFRKKGSYPCWDAAYLDPNYPRTGYKSHRLLAKVDGVTGNINFYYHATKGCTPQLGHLPASYNYPKPLTMTNFTMLLYGYFRPKVTGFHTFTISADDLLFVNFGAGNAFDCCRRDSSADHFGNYQAYAIWGSKTAKDELTVHLDAGVYYPIRLFYNNRAYDGALSFTFKTESNENTVSDFSEYFFSLDDTEEGCPGLISYDSSCASVKTSKIIGIDYHTETPNENLVPITKTIYHLGIPCTGTTTTPLCGSGFYDPLANKCVTINTSSTSSVTKTTSHTTSKEVSFHSSISSQKTLIPKSIPSPYGPIKSQSIPTEMETSSEISSSEYAFSDVISTPSHSPYTKKHSSLNSSSYTSTVIHSLTSYSISQGIFSTSLSEQNITSKSSTDKFSTATSMSNNITQSSIIISQFSTNNENYTTTSMHTSSDKISTETLNNSISTTTSILFSNSSTILKNNTTIISSDKDTHYHPVNPTIVCSTNKTEIICASITQPSISNSNNHWSSSVLKFNSTTVRSTLPSSAGSNETSINVPFSSSTESNTSTSSTSTSNSKMVRSTLPSSAGSNETSISVPFSSSTESNTSTSSTSTSNSKMVRSTLPSSAGSNETSINVPFSSSTESNTSTSSTSTSNSKTVRSTPFSSAGIIMTSLSQRNNKSASSYASSNSKCYNTADSCRKVHSTPSYLLTSSYTSEGVDYDCSLVSTKLKINDTNCVNNKHTTKSCLKTSVTTTIPTLEIKTARKSSSNTIGLHSYPTSSPNKSISSAPIIGYISSFKTIKTASPSYQTSDLTTITTITSLNNPGSTAVENTHESNDKSRKTSSNDISSKHSVIKETKDAVESSNKSHQTNTLKCSSIIIASSSHNSYESLGGTTLTLTLSKVYSPQNNDTLPFLEISEVNPSRTVLPESSKMMQYLTSTEERNKTARNTIATNIVSISTFHFEGEGNAIRMGYTQLLLMLIGIIVMNIGT
glycan array binding signal (z-score) [1]: -0.166
glycan array binding signal (z-score) [2]: -0.185
glycan array binding signal (z-score) [3]: -0.225
glycan array binding signal (z-score) [4]: -0.198
glycan array binding signal (z-score) [5]: -0.174
glycan array binding signal (z-score) [6]: -0.187
glycan array binding signal (z-score) [7]: -0.164
glycan array binding signal (z-score) [8]: -0.194
glycan array binding signal (z-score) [9]: -0.196
glycan array binding signal (z-score) [10]: -0.196
glycan array binding signal (z-score) [11]: -0.212
glycan array binding signal (z-score) [12]: -0.176
glycan array binding signal (z-score) [13]: -0.169
glycan array binding signal (z-score) [14]: -0.171
glycan array binding signal (z-score) [15]: -0.194
glycan array binding signal (z-score) [16]: -0.195
glycan array binding signal (z-score) [17]: -0.186
glycan array binding signal (z-score) [18]: -0.191
glycan array binding signal (z-score) [19]: -0.214
glycan array binding signal (z-score) [20]: -0.2
glycan array binding signal (z-score) [21]: -0.159
glycan array binding signal (z-score) [22]: -0.214
glycan array binding signal (z-score) [23]: -0.186
glycan array binding signal (z-score) [24]: -0.218
glycan array binding signal (z-score) [25]: -0.191
glycan array binding signal (z-score) [26]: -0.177
glycan array binding signal (z-score) [27]: -0.188
glycan array binding signal (z-score) [28]: -0.203
glycan array binding signal (z-score) [29]: -0.228
glycan array binding signal (z-score) [30]: -0.212

Reference: the supplement of paper PMC8728848
